{"source": "the supplement of paper PMC11417369", "note": "This is one part of the list.", "data": [{"system": "PfSIP2 AP2 domain 1 (GST-tagged)", "experiment": "gcPBM binding intensity (ln(normalized median fluorescence intensity)); higher = stronger DNA binding", "in_short": "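Binding intensity values are the highest Masliner-normalised natural-log median intensity among replicate spots of either probe orientation. The binding step lasted 1 h in 1× PBS with 1% milk, 0.2 mg/ml BSA, 0.5% salmon testes DNA and 0.03% Triton X-100, using GST-tagged P. falciparum DNA-binding domains expressed in E. coli on an Agilent 4 × 180k array of primer-extended double-stranded 36-bp intergenic genomic probes plus negative controls. Alexa488 anti-GST antibody and a 488 nm scan detected bound protein.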", "values": [{"sequence": "ATTTATAAAACAGGCACACATATAATAAATTTTATA [CACACA_site2600]", "gcPBM binding intensity (ln)": 6.94}, {"sequence": "TAATAATTATTGCACGCACACAAAAACCTATAGATT [CACACA_site2931]", "gcPBM binding intensity (ln)": 7.36}, {"sequence": "ATACAATACACCGAACGTACATAAATCTATCTTTTA [XGTACX_site3668]", "gcPBM binding intensity (ln)": 7.09}, {"sequence": "ATTTTTTTTTTTACAGTGGAACCATATTTGCTCATT [CACACA_negctrl_site940]", "gcPBM binding intensity (ln)": 6.86}, {"sequence": "TTCACTAATAAATACGCACACATATACATATATATA [CACACA_site1383]", "gcPBM binding intensity (ln)": 7.48}, {"sequence": "TTTCAAATATATATAGCACACAAGGTATAATATAAA [CACACA_site877]", "gcPBM binding intensity (ln)": 6.78}, {"sequence": "TAATTTTTTTTAAACACACACATTACATTCAAAAAT [CACACA_site127]", "gcPBM binding intensity (ln)": 7.17}, {"sequence": "CTAATATAGGTATGCACACACAATATGTACATATTT [CACACA_site7558]", "gcPBM binding intensity (ln)": 8.5}, {"sequence": "TTTTAATTAGTACAAACACACATATACACCCAAAAA [CACACA_site5422]", "gcPBM binding intensity (ln)": 7.36}, {"sequence": "TAATTGTAGACATGCACACACAAATATTATATATGT [CACACA_site845]", "gcPBM binding intensity (ln)": 7.45}, {"sequence": "AAGGTATAGAAACACACACACGTGAATATAGTTTAA [CACACA_site5109]", "gcPBM binding intensity (ln)": 6.85}, {"sequence": "TTCTTAAATATATTCAACATACATAATATATAATCT [CACACA_negctrl_site1806]", "gcPBM binding intensity (ln)": 7.04}, {"sequence": "AATATTTTTCAATTTCATGTGCATTCATTGAAGTTA [CACACA_negctrl_site1232]", "gcPBM binding intensity (ln)": 7.34}, {"sequence": "TATATATGTATATATTGTACTTTAAGACAAATATAT [XGTACX_site1052]", "gcPBM binding intensity (ln)": 6.88}, {"sequence": "CGTTATATAATAAAGGTGCATAGATATATCATTATA [GTGCAC_site9774]", "gcPBM binding intensity (ln)": 10.5}, {"sequence": "TATATAACATATATATGTACACATAATATCAGATTT [XGTACX_site1041]", "gcPBM binding intensity (ln)": 7.05}, {"sequence": "ACAAAAATATTTGTAAAAAGAAATATAAATAAATAA [TGCATGCA_negctrl_site357]", "gcPBM binding intensity (ln)": 6.78}, {"sequence": "AAAAATAGAGCAGCTCTCATATTTTTATGTGCAATA [CACACA_negctrl_site837]", "gcPBM binding intensity (ln)": 7.03}, {"sequence": "AGGATATATTATATGTACACACACATATAAGGGATT [GTGCAC_negctrl_site47]", "gcPBM binding intensity (ln)": 7.03}, {"sequence": "GCATTTATGAAAAATGTACACACATCAAATGCTTAT [CACACA_site9347]", "gcPBM binding intensity (ln)": 6.9}, {"sequence": "TATTACACACAATATTGTACACATAGGAAAAATATT [XGTACX_site1726]", "gcPBM binding intensity (ln)": 7.19}, {"sequence": "TATTTTTTACATTCGTGTACGCATTTTTGTGAATTT [XGTACX_site5339]", "gcPBM binding intensity (ln)": 6.89}, {"sequence": "TCTAATACACAATGTTGTACATATTAATATATATGT [XGTACX_site2931]", "gcPBM binding intensity (ln)": 7.17}, {"sequence": "ATCATTCTTAAACCGTGTACTTATTATTTTTTTTTT [XGTACX_site2798]", "gcPBM binding intensity (ln)": 7.09}, {"sequence": "AAATGACTATATAAAAGTACTAGAAAGTATAAATAT [XGTACX_site944]", "gcPBM binding intensity (ln)": 6.98}, {"sequence": "CATCCGTTGATATATGCATGCATATTGTTATTACCA [TGCATGCA_site868]", "gcPBM binding intensity (ln)": 7.23}, {"sequence": "AAAATACACGATAGTTGTACATTAAATGTATACAAT [XGTACX_site360]", "gcPBM binding intensity (ln)": 6.91}, {"sequence": "GCATATATGGATATATAGGTATATATAAATGCAATA [GTGCAC_negctrl_site24]", "gcPBM binding intensity (ln)": 6.97}, {"sequence": "CCTCTCATTTTATATAGTACATATTTCAAAAAAAAA [XGTACX_site488]", "gcPBM binding intensity (ln)": 7.47}, {"sequence": "AGGAGGATAGTTCACAGTACCCAGTAACTCTACGGA [XGTACX_site1997]", "gcPBM binding intensity (ln)": 6.56}, {"sequence": "ATATAAAAAAAAAATTGTACAAAAATATATACATAT [XGTACX_site469]", "gcPBM binding intensity (ln)": 7.03}, {"sequence": "GCATATTTTCCCTGTGAATAAAGTTTTTTTTTTTAT [XGTACX_negctrl_site87]", "gcPBM binding intensity (ln)": 6.76}, {"sequence": "TATAAAGATATAAATGCACACGTATTAAAAAAAAAA [CACACA_site8223]", "gcPBM binding intensity (ln)": 7.39}, {"sequence": "TGTTACATAAAATGCACACTTTCAAATATGCTAATA [CACACA_site2925]", "gcPBM binding intensity (ln)": 7.74}, {"sequence": "GAGATAAAATAAAACACACACATATATATATAGAAT [CACACA_site2197]", "gcPBM binding intensity (ln)": 7}, {"sequence": "AAAAAAATCTCCAGTGTGCACAATCACATAATATAT [GTGCAC_site9833]", "gcPBM binding intensity (ln)": 9.07}, {"sequence": "TATAAGCTAAGTTGTTGTACAAAAAGGAAAAGTATA [XGTACX_site3741]", "gcPBM binding intensity (ln)": 7.09}, {"sequence": "AATATATGGTTTCATGATATTAAATTCAATTTAATG [GTGCAC_negctrl_site370]", "gcPBM binding intensity (ln)": 6.85}, {"sequence": "TATACGTATTTTATATGTACACATATACATATTTAT [XGTACX_site5301]", "gcPBM binding intensity (ln)": 6.98}, {"sequence": "TTTTCTTTTAAGTTTGTTTTACACTTTTTATTTTGA [CACACA_negctrl_site1581]", "gcPBM binding intensity (ln)": 6.62}, {"sequence": "AAATATAAATATACTCGTACATATATATATATATAT [XGTACX_site6940]", "gcPBM binding intensity (ln)": 9.48}, {"sequence": "ACTATATTTCATAACAGTACATATTCCTGAAACATC [XGTACX_site4924]", "gcPBM binding intensity (ln)": 7.27}, {"sequence": "ACAATATAAAAAAATTGTACATAATATATAATATTA [XGTACX_site1040]", "gcPBM binding intensity (ln)": 6.95}, {"sequence": "CATGCTTATATGTGCACACACAAAAGAAAAGAAAAA [CACACA_site1655]", "gcPBM binding intensity (ln)": 9.95}, {"sequence": "TTCCTTTGTTGTCGTTGTACTTATATGGTTATAATT [XGTACX_site3082]", "gcPBM binding intensity (ln)": 7.5}, {"sequence": "TATACATAAAAAAATTTTACCAGGTTAATACAAATA [CACACA_negctrl_site1171]", "gcPBM binding intensity (ln)": 6.95}, {"sequence": "TACCTTATGTTATATACACACATATAACATAATATA [CACACA_site6741]", "gcPBM binding intensity (ln)": 7.12}, {"sequence": "ATATATATATATAGTAGTACTCTCTCTGTATATATA [XGTACX_site3754]", "gcPBM binding intensity (ln)": 9.27}, {"sequence": "ATTTAGAAAAATAAAACACACATATATCTGTAAATA [CACACA_site6119]", "gcPBM binding intensity (ln)": 6.93}, {"sequence": "ATATGTAAAATATGGTGTACAATCAAATAAAAAAAA [XGTACX_site6270]", "gcPBM binding intensity (ln)": 7.16}, {"sequence": "ATTAATATATTTACCACACACCCATTTCGATTTTAT [CACACA_site3605]", "gcPBM binding intensity (ln)": 6.99}, {"sequence": "CATATAAAAGGACACACACACACATATATATATATA [CACACA_site4674]", "gcPBM binding intensity (ln)": 9.23}, {"sequence": "TATTTTATTTTTTGTTGTACATATATATTATATATA [XGTACX_site4513]", "gcPBM binding intensity (ln)": 7.28}, {"sequence": "GATATATTACTTAAAATACACACCATGGAAAAGTTT [CACACA_site2606]", "gcPBM binding intensity (ln)": 7}, {"sequence": "GAATATGTTAACATTTGTACATAAAATTTTTTACAA [XGTACX_site2444]", "gcPBM binding intensity (ln)": 7.13}, {"sequence": "ATGTTTAAATTTTTCAGTACATATATTCTAGTAAAA [XGTACX_site1010]", "gcPBM binding intensity (ln)": 7.15}]}]}
